Molecular target: T1, human BCMA (B-cell maturation antigen) (human, UniProt Q02223 1-184)
T1 sequence (looked up): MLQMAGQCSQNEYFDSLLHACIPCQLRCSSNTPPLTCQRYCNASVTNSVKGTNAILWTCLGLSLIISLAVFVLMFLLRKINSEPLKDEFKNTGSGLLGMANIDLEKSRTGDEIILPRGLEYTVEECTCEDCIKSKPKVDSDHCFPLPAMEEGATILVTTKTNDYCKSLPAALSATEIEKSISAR
Experiment: cell-based or functional assay

B1: BCMA×CD3 bispecific antibody BQ76 (bispecific antibody, human IgG1, kappa)
heavy: [here about 100 residues without letters]VAPYFAPFDYWGQGTLVTVSSASTKGPSVFPLAPSSKSTSGGTAALGCLVKDYFPEPVTVSWNSGALTSGVHTFPAVLQSSGLYSLSSVVTVPSSSLGTQTYICNVNHKPSNTKVDKRVEPKSCDKTHTCPPCPAPELLGGPSVFLFPPKPKDTLMISRTPEVTCVVVDVSHEDPEVKFNWYVDGVEVHNAKTKPREEQYASTYRVVSVLTVLHQDWLNGKEYKCKVSNKALPAPIEKTISKAKGQPREPQVCTLPPSREEMTKNQVSLSCAVKGFYPSDIAVEWESNGQPENNYKTTPPVLDSDGSFFLVSKLTVDKSRWQQGNVFSCSVMHEALHNHYTQKSLSLSPGK
light: [here about 100 residues without letters][here about 120 residues without letters]
chain: EVQLVESGGGLVQPGGSLKLSCAASGFTFNTYAMNWVRQASGKGLEWVGRIRSKYNNYATYYADSVKDRFTISRDDSKSTLYLQMNSLKTEDTAVYYCVRHGNFGNSYVSWFAYWGQGTLVTVSSGGGGSGGGGSGGGGSGGGGSQAVVTQEPSLTVSPGGTVTLTCRSSTGAVTTSNYANWVQQKPGQAPRGLIGGTNKRAPWTPARFSGSLLGDKAALTLSGAQPEDEAEYFCALWYSNLWVFGGGTKLTVLGGGGS[here human IgG1 Fc with changes without letters]
fold enhancement of RTCC EC50 upon GSI treatment: ≥ 10 fold

Source: US20200179511A1 (Novartis, published 2020)
